We go through 54 compounds from ChEMBL document CHEMBL4888484, “Replenishing the malaria drug discovery pipeline: Screening and hit evaluation of the MMV Hit Generation Library 1 (HGL1) against asexual blood stage Plasmodium falciparum ,using a nano luciferase reporter read-out” (2022).

For orientation: % Inhibition means the change of the read-out against control, counted positive when it falls.

Screen size: about 150,000 compounds; about 540 (0.36%) showed an effect of 50% or more. This is one part of the list.

The experiment has as its system Plasmodium falciparum. As to the kind of experiment: Primary screen in NF54 nanoGlo assay, in single point, at 2uM, 72h; a lower Z score goes with more inhibition. The following applies: timepoint 72 hour. The format is functional, Erythrocyte.
For the compound `O=C(NC[C@H]1CCCN(c2nnnn2-c2ccccc2)C1)c1cc(C(F)F)[nH]n1`, the “% Inhibition” value is -6% and the Z score turned out to be 1.19.
Consider `CCOc1ccc(S(=O)(=O)[C@H]2CS(=O)(=O)C[C@@H]2N2CCCC2)cc1`, for which the “% Inhibition” value was determined as 3% and the Z score was -0.41.
Consider `O=C(NCC(O)C1CCOCC1)C1CC1C1CC1` (stereo not drawn), for which the “% Inhibition” value is listed as 4% and the Z score is given as -0.6.
For `Cc1cc(CNc2nc3c(c(=O)[nH]2)CCNC3)c(C(F)(F)F)o1`, in that order: -6% and 0.77.
On to `O=C(COc1ccc(Cl)cc1Br)NC(=O)CN1CCCC1=O`, for which the “% Inhibition” value is on record as 9% and the Z score is reported as -1.71.
Taken in the same sequence, the figures for `FC1(F)CC[C@H](CNc2nccs2)C1` were -5% and 0.99.
For `C[C@@]1(C(=O)NC2CCCCC2)Cn2c(ccc2-c2ccccc2)C(=O)N1Cc1cccc(F)c1`, in that order: -10% and 1.29.
For `Cc1ccc(CN2CCN(Cc3nc(C(=O)Nc4ccc(F)cc4)co3)CC2)cc1`, in that order: -15% and 2.37.
Turning to `CNC(=O)Cc1noc(-c2cnc(-c3ccc(F)c(F)c3)s2)n1`, the “% Inhibition” value is on record as -6% and the Z score was 1.04.
Taken in the same sequence, the figures for `Cc1ccc(C[C@H](NC(=O)Nc2ccn(C)n2)c2cccnc2)cc1` were -8% and 0.75.
Consider `Cc1ccc(-c2nc(C3CCCC3)n[nH]2)c(F)c1`, for which the “% Inhibition” value is -17% and the Z score is given as 1.6.
Taken in the same sequence, the figures for `Cc1c(CNC[C@@H](O)c2ccc(C(F)(F)F)cc2)cnn1C` were 3% and -0.46.
Consider `CCn1cc(CN2CCC3(CC2)CN(CCC(C)C)C(=O)O3)c(C)n1`, for which the “% Inhibition” value was 17% and the Z score is -2.35.
Taken in the same sequence, the figures for `Cc1cccc(NC(=O)N2CCC3(CC2)C[C@@H](N(C)Cc2ccccc2)CCO3)c1` were -2% and 0.29.
Take `COc1ccc(C(=O)N[C@@H](C(=O)Nc2ccccc2C)c2ccc(Cl)cc2)cc1`: the “% Inhibition” value is listed as 42% and the Z score was -1.59.
Taken in the same sequence, the figures for `O=C(O)C1CCC2CCCCC2N1C(=O)Cc1ccsc1` (stereo not drawn) were 5% and -0.96.
As to `Cc1nccn1C[C@H](C)NCc1nncn1CCc1ccccc1`, the “% Inhibition” value amounted to 4% and the Z score was -0.52.
Consider `Cc1ccc(-c2ncc(C(=O)N3CCC4(CCCC4)C3)c(O)n2)cc1`, for which the “% Inhibition” value is listed as -8% and the Z score was 0.89.
Take `O=C1CC2CCC(CN1)N2C(=O)c1ccc(-c2ccccc2F)o1` (stereo not drawn): the “% Inhibition” value amounted to 33% and the Z score is -3.33.
For `O=C1C[C@@H](c2ccccc2)N(c2ncnc3cc(Cl)ccc23)CCN1`, in that order: -5% and 0.98.
On to `CC[C@H](C)NC(=O)Nc1cccc(F)c1`, for which the “% Inhibition” value was -11% and the Z score came out at 2.18.
Take `Cc1cc(C)c(CS(=O)(=O)CC(=O)N2CCO[C@@H](C)C2)c(C)c1`: the “% Inhibition” value was found to be 0% and the Z score stood at 0.03.
For `O=C(Cn1ccnc1-c1ccnc(N2CCCC2)c1)NCc1ccccc1Cl`, the “% Inhibition” value was 7% and the Z score was -0.83.
As to `O=C(c1ccnc(/C=C/C2CCCCC2)c1)N1CCOCC1`, the “% Inhibition” value is -21% and the Z score was 2.03.
For `Cc1n[nH]c(C)c1NC(=O)CN1CC(C)OC(C)C1` (stereo not drawn), in that order: 31% and -4.12.
For `Cc1ccc(NC(=O)c2cnn(C(C)C)c2N)s1`, in that order: -5% and 0.64.
Taken in the same sequence, the figures for `Fc1cccc(F)c1CN1CCO[C@@H](Cn2ccnn2)C1` were 14% and -1.6.
As for `Cc1cc(C)nc(Nc2nc(CC(=O)Nc3cccnc3)cs2)n1`, the “% Inhibition” value is -28% and the Z score is 4.08.
For `O=C(NC1CC1)[C@@H]1CN(Cc2cnc(-c3ccc(Cl)cc3)nc2)CCN1`, in that order: 4% and -0.64.
Take `C[C@]1(O)CCN(C(=O)c2ccc3[nH]nnc3c2)C[C@@H]1O`: the “% Inhibition” value is 1% and the Z score is -0.12.
`CCOc1ccccc1N(C)Cc1cc(C(N)=O)cs1`: the “% Inhibition” value is reported as -5% and the Z score turned out to be 0.48.
On to `C[C@@H]1CN(CC(=O)N(Cc2cocn2)Cc2cocn2)C[C@H](C)O1`, for which the “% Inhibition” value was -1% and the Z score is 0.2.
For `CC[C@H](C)N(CC(=O)N(CCc1ccccc1)Cc1ccco1)C(=O)CC(C)(C)C`, in that order: 10% and -1.06.
For the compound `C[C@H](NC(=O)c1cnccn1)c1nc(-c2ccncc2)cs1`, the “% Inhibition” value is reported as -17% and the Z score is 2.63.
As for `Cc1ccc(CC(=O)N2CCCn3nncc3C2)cc1Cl`, the “% Inhibition” value is reported as -1% and the Z score was found to be 0.19.
As to `Cc1cc(CN(c2ccccc2Br)S(=O)(=O)N(C)C)nn1C`, the “% Inhibition” value is reported as 3% and the Z score is -0.27.
Take `CCN(CC)C(=O)Cn1cc(C(=O)N[C@H](C)c2cccc(OC)c2)nn1`: the “% Inhibition” value was 12% and the Z score was -1.56.
For `O=C1C[C@@H]2CCN(C(=O)C3CCOCC3)C[C@@H]2CCOc2ccc(C(F)(F)F)cc2N1`, in that order: -7% and 0.96.
Turning to `Cc1nn(C)c(OC[C@H]2CCCCO2)c1C(=O)NCc1nccc(C(F)F)n1`, the “% Inhibition” value is 0% and the Z score was found to be 0.05.
For `O=C1N(Cc2ccccc2F)CCC[C@@]1(O)CN1CCCOCC1`, in that order: 5% and -0.7.
Regarding `COC(=O)c1ccc(NC(=O)CCc2csc(C)n2)cc1`, the “% Inhibition” value is recorded as -14% and the Z score is 1.76.
Taken in the same sequence, the figures for `Fc1ccc(CNc2ccc3c(c2)OCO3)cc1Br` were -3% and 0.48.
`COc1ccc(CC(=O)NC[C@H]2CC(Cc3ccc(F)cc3)=NO2)cc1`: the “% Inhibition” value stood at 3% and the Z score is listed as -0.36.
For `CC(C)NC(=O)Cc1cc(-c2ccc3c(c2)C[C@H](C)O3)on1`, the “% Inhibition” value is listed as -8% and the Z score came out at 1.49.
Regarding `CCn1ccc(C(=O)NC(Cc2ccncc2)[C@H]2C[C@H](O)C2)cc1=O` (stereo partly drawn), the “% Inhibition” value was -12% and the Z score is given as 1.26.
Taken in the same sequence, the figures for `Oc1ccccc1-c1cc(-c2ccc(F)cc2)cc(-c2ccccc2)n1` were -5% and 0.54.
On to `Cc1cccc(CNC(=O)[C@]2(C)Cn3nc(-c4cccs4)cc3C(=O)N2c2ccc(C)cc2Cl)c1`, for which the “% Inhibition” value is recorded as -10% and the Z score was 1.56.
For the compound `CN(C)c1ccc(CN2CCOC[C@H]2c2nc(C(C)(C)C)co2)cc1`, the “% Inhibition” value was found to be 16% and the Z score is recorded as -1.81.
Taken in the same sequence, the figures for `CC(C)C(NC(=O)c1ccco1)C(=O)NCC1CCCC1O` (stereo not drawn) were 5% and -0.73.
Regarding `Cc1cccc2c1N(C(=O)[C@@H]1OCC[C@@H]1C(C)C)CC2`, the “% Inhibition” value was -1% and the Z score came to 0.12.
Taken in the same sequence, the figures for `CCOC(=O)C(c1cc(Cl)cc(Cl)c1)N(CC)C(=O)C(C)S(=O)(=O)C(C)C` (stereo not drawn) were -1% and 0.07.
For `CCCn1cc(CN(C)C2(COC)CC2)c(C)n1`, in that order: 12% and -1.68.
For `CO[C@H]1CCC[C@@H]1Nc1nccn2nc(C)cc12`, in that order: 9% and -1.13.
Turning to `Cc1n[nH]c2c1CN(C(=O)[C@H](C)n1ccnc1)CC2`, the “% Inhibition” value is given as -23% and the Z score came to 2.45.
